# Source: the supplement of paper PMC11417369
# This is one part of the list.
# System: PfSIP2 AP2 domain 1 (GST-tagged)
# Assay: gcPBM binding intensity (ln(normalized median fluorescence intensity)); higher = stronger DNA binding
# Outline: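 The binding buffer was 1× PBS containing 1% milk, 0.2 mg/ml BSA, 0.5% salmon testes DNA and 0.03% Triton X-100. In it, GST-tagged P. falciparum DNA-binding domains expressed in E. coli were applied for 1 h to an Agilent 4 × 180k array of primer-extended double-stranded 36-bp intergenic genomic probes plus negative controls. Binding intensity, read with Alexa488 anti-GST antibody and a 488 nm scan, is the highest Masliner-normalised natural-log median intensity across replicate spots of either probe orientation.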
row,Sequence,gcPBM binding intensity (ln)
1,TTATATAATCCTTTCAAACACACAAAATATAATTAA [CACACA_site1830],6.91
2,AGTGAAAAAAAATTTACACACATAAAATATAAACGA [CACACA_site3724],7.08
3,AAAAAAAATATAAGTGGTACTCACATAAAGACATAT [XGTACX_site3709],7.24
4,AAATAAAATACATATAAACACACATATAAACCAACA [CACACA_site8789],7.08
5,TTTTTTATTCTTTTTGCACACAGGAAATTTACAGAT [CACACA_site1090],7.78
6,TTTTTAGTTCATTAAACACACAAAAAAAAAAATAAA [CACACA_site6035],6.91
7,TAATACTTTTAATCTACACACGCTGAGACATGCTTT [CACACA_site1484],6.61
8,TACAAAAAAAGATGATGTACAATGAAAAATAAGAAA [XGTACX_site5840],7
9,AAAAAAAAAAAAAACACACACACAAATACAAATACA [CACACA_site414],7.41
10,ATAAATAATTGTAGTTGTACATGATATTTTTATTAC [XGTACX_site550],7.14
11,AAATGGACCTAATTATCACACATTATACTCGTTTTC [CACACA_site5996],6.82
12,ATATATCATAATAAAAGTACTTATATATTTTATATA [XGTACX_site560],6.91
13,AAAATAAATAAATATACACACCATATATATATTTTT [CACACA_site5573],6.88
14,ATATTTATAACTTGTACACACAAATATGCATATATA [CACACA_site7583],7.29
15,TTATTATTCCCTCATTTTGTTACCATTATTTCAATT [CACACA_negctrl_site1023],7.09
16,TTAAAATTTTTTTTTTTTTTTTTTTTTTTTTTTTTC [CACACA_negctrl_site957],6.85
17,TTGTTAAAATTATTAAGTTAAATATCGATTTGTAAA [XGTACX_negctrl_site429],6.69
18,TATAAGTTTATATATACACACATATATATATATATA [CACACA_site3274],9.66
19,TTATTTTCTTTCTATGCACACGCACGTATTTGCCCA [CACACA_site9104],7.91

row,Sequence,gcPBM binding intensity (ln)
1,TATAGTAAAATTAGGGTGCTTTTGTAACAAAAAAAA,8.74
2,TGCTTCATAAATAAAACATGCAATATAGAAATTAAA [TGCATGCA_site690],6.88
3,AGAGTAGGAAATGGAAAAATAAAATAAATAAATAAA [XGTACX_negctrl_site69],6.84
4,AAATATATATACCACACACACATACCTCTATTTGTA [CACACA_site1854],7.05
5,CGTATTTTAATATTTACACACTTATTTTTTATATAA [CACACA_site125],7.1
6,TTTTGTAAAAGGTATATATATATATATATATATATA [GTGCAC_negctrl_site734],9.66
7,TTTATATAGAAAAATTGTACGAATTACTTTTTTATA [XGTACX_site6843],6.66
8,TATAGCATATTTCACACACACATAATGAATATTATA [CACACA_site3545],6.95
9,TTTAACGTTGAATATACACACATATATTTATTTATA [CACACA_site7695],6.91
10,AAAATGTACTTTTTCTAAAGAGTAATGATGCTTGAT [CACACA_negctrl_site1124],6.97
11,AATCCTTTAAAACACACACACAAAAAAAAAAAAAAA [CACACA_site642],7.15
12,ATGAAATATGCACAGTGTACTTTTATGAGGAACATA [XGTACX_site426],7.44
13,TTTTTAATACAAAAAAAATAATATGTTATATTTCAA [CACACA_negctrl_site35],6.72
14,AATTAACCGTGACACACACACATATAAATATAAATA [CACACA_site7790],7.38
15,TGCCCTTTGGTTATAACACACATGCACACGTAAATA [CACACA_site7750],7.71
16,GGGAATATATAAGATACACACACAAATTAAATATAA [CACACA_site8898],7.06
17,TATATATATATATATACACACACACCCACCAAAGCG [CACACA_site7904],9.32
18,AATAAAATAATAGGCACACATATATATATATATTAT [CACACA_site273],7.38
19,ATATATCTACATATATGTACATATATGTATATGTAT [XGTACX_site5432],7.21

row,Sequence,gcPBM binding intensity (ln)
1,ATATCCTACTTCTAGTGTACATATATGGACTGATGA [XGTACX_site3683],7.19
2,TACAATTTATGACACACACACAATAATACCTATATA [CACACA_site6704],7.16
3,TATATATATATATGTGCACACATAAAGATATTATTT [CACACA_site3734],9.38
4,AAAAAAAAAAAACACACACACACACTAGTACATACA [CACACA_site4551],7.33
5,TATATATATATATATGTGCGCATATATTTTTTTGTA [GTGCAC_site9983],9.52
6,ACAAAATTTACAAAATGTACAAAATATACAAAATAT [XGTACX_site6465],6.99
7,ACTAGACAAAATATAATGCACACTATTATTTTTATT [CACACA_site2726],7.4
8,AATAATATACATATATATATTATATTGTAATTTTGT [TGCATGCA_negctrl_site1],7.11
9,TTATATCAAGGGAATGCATGCATATCGTTTTGTATT [TGCATGCA_site327],6.89
10,CATGAGGTATAAAAGGTGCAAATTAATGAGAACATT,11.1
11,TATTCTTATATATATACACACACAAAATATCTACAA [CACACA_site8144],7.16
12,TTGCATTGATCAAACATACACACATGGTTAATAAAA [CACACA_site2084],7.12
13,TATTTCTCACTGTATGGTACAGATATAAATTTTTAT [XGTACX_site8776],7.02
14,CACAAATAAATATTCACACATATATGTCTTATATAT [CACACA_site5323],6.91
15,ATTACAATAAATTCGTGTACATGATACCGCCGCTAC [XGTACX_site8997],6.89
16,ATCAAATTTTTGTTATGTACACAATCATTTAATAAA [XGTACX_site810],7.22
17,TAATTATTATTAAATACACACACATACCTCCATGTT [CACACA_site9134],6.89
18,AAAAAAAAAAAATAGGTGCGTGTTACTTTTGTATGC [GTGCAC_site9524],9.97
19,ATATATATGTATAATCGTACAGTTAACGTATTCTTA [XGTACX_site5649],7.09
